Hit rate of the full screen: of about 150,000 compounds, about 540 (0.36%) showed an effect of 50% or more. Some of the results follow.

The assay deals with Plasmodium falciparum. The assay is described as follows: Primary screen in NF54 nanoGlo assay, in single point, at 2uM, 72h; a lower Z score goes with more inhibition. It is filed as functional, Erythrocyte. The note with it: timepoint 72 hour.
`CN1CCN(C(=O)c2ccc(-c3ccccc3F)o2)c2ccccc2C1`: the “% Inhibition” value is on record as -10% and the Z score amounted to 0.99.
With `C[C@@H](CC#N)N(C)c1nccc(C(F)(F)F)n1`, the “% Inhibition” value is -6% and the Z score is 0.73.
For `CO[C@@H](CNS(=O)(=O)CC(C)C)c1ccco1`, the “% Inhibition” value is -10% and the Z score is on record as 2.06.
On to `CCCn1cc(N[C@H]2CCN(c3c(F)cccc3F)C2=O)cn1`, for which the “% Inhibition” value is 1% and the Z score is -0.17.
With `CC(C)CCCNC(=O)c1cc(S(N)(=O)=O)oc1Cl`, the “% Inhibition” value is listed as -1% and the Z score is listed as 0.17.
As to `O=S1(=O)CCC(NCCC2CCCO2)c2cc(F)c(F)cc21` (stereo not given), the “% Inhibition” value is 31% and the Z score is recorded as -4.48.
On to `CC(C#N)CN(C)c1nc2c(N(C)CC(C)C#N)ncnc2s1` (stereo not given), for which the “% Inhibition” value is on record as -1% and the Z score is recorded as 0.18.
The corresponding values for `CC(=O)C[C@@]1(O)C(=O)N(CCCOc2ccc(Cl)cc2)c2ccc(C)cc21` are -7% and 0.86.
Consider `C[C@@H](CNC(=O)Nc1nc(C(F)(F)F)co1)c1nccs1`, for which the “% Inhibition” value is reported as 5% and the Z score is -0.56.
The corresponding values for `CCCn1nc(C(=O)Nc2cccc(Cl)c2)cc1-c1ccc(Cl)s1` are -14% and 2.74.
As for `CC1(C)C(=O)Nc2ccc(C(=O)NCc3ccc4c(c3)COC4)cc21`, the “% Inhibition” value is -8% and the Z score is listed as 1.05.
In the same order, the values of `O=C(Nc1cccc(F)c1)Nc1ccnn1C1CCN(Cc2cc[nH]n2)CC1` are -7% and 1.08.
Turning to `Cn1cc(C(C)(O)CNC2CCCc3sccc32)cn1` (stereo not given), the “% Inhibition” value is -3% and the Z score is recorded as 0.32.
As to `COC[C@H](C)NCc1ccccc1C(F)(F)F`, the “% Inhibition” value is -9% and the Z score was determined as 1.73.
In the same order, the values of `COc1cccc(CN2CC3(CCN(c4cc(OC)ncn4)CC3)CC2=O)c1` are 12% and -1.56.
Regarding `COCc1nc(-c2ccc(C)cc2)nc(-c2ccc(C)cc2)n1`, the “% Inhibition” value is recorded as 0% and the Z score was found to be 0.03.
Turning to `Cc1cc(=O)cc(O)n1Cc1nnc2ccccn12`, the “% Inhibition” value is -9% and the Z score was found to be 1.17.
On to `COc1ccc(CN2CCN(S(=O)(=O)c3ccc4c(c3)C(C)(C)C(=O)N4C)CC2)c(OC)c1OC`, for which the “% Inhibition” value is reported as -6% and the Z score was found to be 1.08.
The corresponding values for `C[C@@H](c1ccon1)N(C)C(=O)c1cnc(Cc2c(Cl)cccc2Cl)nc1O` are 0% and -0.02.
`COc1ccc(N2CCN(C(=O)Cn3cnc4c(-c5cccc(OC)c5)cn(C)c4c3=O)CC2)cc1`: the “% Inhibition” value was -5% and the Z score is recorded as 0.76.
Regarding `O=C(COc1cccc(Cl)c1)NC[C@@H]1C[C@H](F)CN1`, the “% Inhibition” value was 15% and the Z score is -1.92.
For the molecule `O=C(N[C@@H](Cn1nccn1)c1ccccc1)c1cc(Br)ccc1Cl`, the “% Inhibition” value came to 57% and the Z score is listed as -6.89.
The corresponding values for `Brc1cnc(N[C@H]2CCCc3cn[nH]c32)nc1` are -14% and 1.92.
With `CCOC(=O)C(Cc1ccccn1)C(=O)OCC`, the “% Inhibition” value is 4% and the Z score is recorded as -0.48.
For the molecule `O=C(NC[C@H]1CCCO1)c1cc2n(n1)CCCO2`, the “% Inhibition” value is -18% and the Z score is reported as 2.79.
Consider `CC(C)[C@@H](C(=O)NCCn1cnnc1C1CC1)N1CCCCC1`, for which the “% Inhibition” value is -14% and the Z score is listed as 1.91.
Regarding `CCCNc1ncc(CN2CC[C@H](NC(=O)c3cccnc3)[C@@H](O)C2)cn1`, the “% Inhibition” value is recorded as -8% and the Z score is reported as 0.78.
As for `C(=C\c1nc2sc(/C=C/c3ccccc3)nc2s1)/c1ccccc1`, the “% Inhibition” value is recorded as -12% and the Z score was determined as 1.56.
On to `Cc1nc(N2CCc3c(c(C(N)=O)nn3C)C2)ccc1Cl`, for which the “% Inhibition” value is 2% and the Z score is reported as -0.51.
In the same order, the values of `Nc1c2c(-c3cccc(F)c3)nc(N3CCN(C(=O)[C@@H]4CCCO4)CC3)nc2nn1-c1cc(F)ccc1F` are -7% and 1.22.
For the molecule `Cc1ccccc1-n1c(=O)n(Cc2ccccc2)c(=O)c2c1ncn2Cc1ccccc1Cl`, the “% Inhibition” value is given as -7% and the Z score amounted to 0.64.
For the molecule `c1cnc2c(c1)nnn2OCC1CCCCCC1`, the “% Inhibition” value stood at 16% and the Z score is given as -1.98.
As for `Cc1cc(CN2CCS(=O)(=O)C[C@H]2C2CC2)ccc1F`, the “% Inhibition” value is recorded as -1% and the Z score was determined as 0.15.
In the same order, the values of `COc1ccc(-c2cc3n(n2)CCCN(C(=O)c2ccccc2Cl)C3)cc1OC` are 1% and -0.07.
In the same order, the values of `COc1ccc(Cl)cc1C(=O)N[C@@H]1COCC[C@@H]1OCCN(C)C` are -8% and 1.41.
For `CCOc1cc(N2CC(N[C@H]3CCOC3)C2)ncn1`, the “% Inhibition” value is -16% and the Z score is 2.45.
The corresponding values for `Cc1cc(=O)[nH]c(C)c1NS(=O)(=O)NCc1ccccc1` are 7% and -0.72.
Take `COc1ccc(CNCc2c3c(nn2C)CCCC3)c(Cl)c1`: the “% Inhibition” value is -14% and the Z score came to 1.61.
The corresponding values for `CC1CCCCC1OCCN1CCCCC1C(N)=O` (stereo not given) are -5% and 0.84.
Consider `C[C@H]1CCCCN1CCCCNC(=O)Nc1cccc(OC(F)F)c1`, for which the “% Inhibition” value was -4% and the Z score was determined as 0.36.
In the case of `O=C(c1ccncc1)N(Cc1cc2ccccc2nc1O)C[C@H]1CCCO1`, the “% Inhibition” value was -20% and the Z score is given as 2.31.
The corresponding values for `CCO[C@H]1COC[C@@H]1Nc1nc(N)nc(C)c1Cl` are 22% and -2.99.
With `COc1ccc(OC)c(S(=O)(=O)N2CCCN(C)c3ccccc32)c1`, the “% Inhibition” value was -12% and the Z score stood at 1.33.
In the same order, the values of `Cc1c2c(n(Cc3ccc(F)c(F)c3)c1C(=O)NCc1ccncc1)CCCC2` are 7% and -0.69.
Turning to `CC(C)c1cc(CNC2CCN(Cc3ccco3)CC2)no1`, the “% Inhibition” value was 4% and the Z score was -0.7.
As for `Cc1cc(CN(c2ccc(C#N)cc2)S(C)(=O)=O)on1`, the “% Inhibition” value was -8% and the Z score was determined as 0.73.
In the same order, the values of `Cc1sccc1CN1CC[C@H](O)C12CCCC2` are 3% and -0.62.
The corresponding values for `Cc1noc(C2CN(C(=O)NCc3ccc(F)cc3)C2)n1` are -4% and 0.73.
The corresponding values for `CCc1n[nH]c2c1CN(c1cccc(C(=O)N(C)C)n1)CC2` are -17% and 1.6.
`O=S(=O)(C1CC1)N1CCOC[C@H]1c1noc(-c2ccccc2)n1`: the “% Inhibition” value was -6% and the Z score is given as 0.73.
In the same order, the values of `c1csc(-c2n[nH]cc2CNCC2CC2)c1` are -5% and 0.58.
In the same order, the values of `C[C@H]1CN(C(=O)c2cc(Cl)cc(F)c2N)Cc2c[nH]nc21` are 2% and -0.33.
In the same order, the values of `Cc1nc(CNC(=O)c2cn(CCN3CCOCC3)nn2)sc1C` are -3% and 0.33.
As to `COc1ccc(-c2nc3c(c(N4CCN(C(C)C)CC4)n2)CCOCC3)cc1`, the “% Inhibition” value is recorded as 3% and the Z score was -0.48.
The corresponding values for `OC1=Nc2cccc3c2c(cn3Cc2cccc(F)c2)[C@@H](c2ccccc2)C1` are -7% and 0.92.

As usually defined, the % Inhibition is the drop in the measured response relative to a control, in per cent.
